This is an account of results in the supplement of paper PMC10338343.

± gives the standard deviation. This is a selection; strong and weak results do not stand in their true shares.
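Also: 1 nM active piRISC with 0.1 nM target library at 33 °C single turnover.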

In the assay the test system is MIWI (PIWIL1) piRISC loaded with piRNA #1 (30 nt). As to the kind of experiment: pre-steady-state target cleavage rate (min^-1); MIWI and MILI are mouse PIWI proteins and EfPiwi is from a freshwater sponge; tags in brackets are library labels; higher = faster piRNA-guided slicing of the target. The note with it: guide: piRNA #1 5'p-UGAGGUAGUAGGUUGUAUAGUAUCCAGAGG; auxiliary factor: 500 nM mouse GTSF1. A digest of the protocol: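 A transcribed, DNA-blocked target RNA library […] was incubated at 33 °C for 0–8 or 0–960 min with 1 nM active affinity-purified piRISC carrying one synthetic guide, in HEPES–potassium acetate buffer with or without 500 nM GTSF1 partner protein. Uncleaved targets were then sequenced and normalised to depth and to weakly complementary targets. Data from three trials were pooled, with k3 capped at 0.0001 min^-1, and a burst-and-steady-state fit yielded the pre-steady-state cleavage rate.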
For GCUCUGGAAACUAUACAUCCUACUACCUCA, the “pre-steady-state target cleavage rate” value was found to be 1.59 ± 0.097. Next, GGAGACGAUACUAUACAACCUUCUACCACA: 0.431 ± 0.025; GGAGACGAUACUAUACACCUACUACCUCA: 0.288 ± 0.027. Next, GGAGACCUAUGUAUACAACCUACUAACCUCA: 0.0929 ± 0.015. Next, GGAGAGGAUACUAUACUACCUACUACGUCA: 0.403 ± 0.032.

In the case of GCUCUUGAUACUAUACAACCUACUACCUCA, the “pre-steady-state target cleavage rate” value came to 2.03 ± 0.11. For CCUCUGGAUUGAAUACAACCUACUACCUCA the value was 0.962 ± 0.067. For CCUCUGGAUACUAUACAACCUGACUACCUCA the value was 0.00646 ± 0.0029; for CCUCUGGAUACUAUACAACCUACUACCAGA, 0.227 ± 0.077. Next, GGAGACCUUAGUAUACAACCUACUACCACA: 0.257 ± 0.037; CCUCUGGAUUCUAUACUACCUACUACCUCA: 1.06 ± 0.062; GGAGACCAAACUAUACAACCUACUACCACA: 0.732 ± 0.1. Regarding GGAGACCUAACUAAUACAACCUACUACCUCA, the “pre-steady-state target cleavage rate” value worked out at 0.358 ± 0.064.

As for GCUCUGGAUACUAGACAACCUACUACCUCA, the “pre-steady-state target cleavage rate” value was 1.78 ± 0.1.

GCUGUGGAUACUAUACAACCUUCUACCUCA: the “pre-steady-state target cleavage rate” value stood at 0.725 ± 0.039. As to GGAGACCUUACUAUAAACCUACUACCUCA, the “pre-steady-state target cleavage rate” value came to 0.00519 ± 0.0021. Next, GGACUGGAAAGUAUACAACCUACUACCUCA: 0.782 ± 0.12; GGAGACCUUACUAUACAACCUACUACCCA: 0.354 ± 0.038. Next, GCACAGGAUACUAUACAACCUACUACCUCA: 1.81 ± 0.1; GGAGUGGAUACUAUACAACCAACAACCUCA: 0.0532 ± 0.0078. For GGAGACCUAUGAUAUGAAGGAACUACCUCA the value was < 0.0001; for CCUCUGGAUUCUAUACAAGCUACUACCUCA, 1.23 ± 0.051. Consider GGAGACCUAACUAUACAACCUACUACCUCCA, for which the “pre-steady-state target cleavage rate” value was 0.849 ± 0.061. For GGUCUGGAUACUUUACAACCUACUACCUGA the value was 0.356 ± 0.071; for GGUCUGGAAACUAUACAACCUACUACCUGA, 0.715 ± 0.16. As to CCUCUGGUUAGUAUACAACCUACUACCUCA, the “pre-steady-state target cleavage rate” value amounted to 0.121 ± 0.026. For “GGAGACCUAACUAUACAACCUACUACCUCU [g2:g21:cont:t1U]” the value was 1 ± 0.072; for GCUCUUGGAUACUAUACAACCUACUACCUCA, 2.1 ± 0.1; for GGACUGGUUACUAUUCAACCUACUACCUCA, 1.43 ± 0.13. Next, GGAGACCUAACUAUACUACCUACUACGUCA: 0.135 ± 0.037. Next, GGAGACCAUACUUUACAACCUACUUCCUCA: 0.249 ± 0.041; GGAGAGGAUACUAAACAUCCUACUACCUCA: 0.946 ± 0.044. GGUCUGGAUACUAUACAUCCUACUACCUGA: the “pre-steady-state target cleavage rate” value came out at 0.395 ± 0.038.

GGAGAGGAUACUAUACAACCUACUACCUCCA: the “pre-steady-state target cleavage rate” value was determined as 0.913 ± 0.048. For GCUCUGGAUACUAUACAACCUACCACCUCA the value was 0.894 ± 0.074; for GGUCUGGAUACUAUACAACCUACUAUCUCA, 1.04 ± 0.093; for GGAGACCUAUGAUAACUACCUACAACCUCA, < 0.0001.

As to GGAGACCUAUGAUAUGUUCCUACUACUUCA, the “pre-steady-state target cleavage rate” value was < 0.0001.

Consider GCUCUGGUUACUAUAGAACCUACUACCUCA, for which the “pre-steady-state target cleavage rate” value came out at 0.51 ± 0.04.
